Experimental findings from PubChem BioAssay AID463173 (ICCB-Longwood Screening Facility, Harvard Medical School, 2010) are described below.

The whole screen tested about 52,000 compounds, of which about 4,300 (8.3%) were called active. Rule as the data show it: active = survival mostly below about 52% (no sharp cut-off); inactive = mostly above about 56%. This is one part of the list.

This test has as its system DeltatarO mutant. As to the kind of experiment: S. aureus survival, RN4220 and DeltatarO strains – OD600, teichoic acid synthesis inhibitors, primary screen (AID 463173). The following applies: S. aureus RN4220 wild type/DeltatarO growth, OD600, 18 h, active compounds read low, screened at 18.75 µg/mL (by protocol).
As to `COc1cccc(-n2nnc(-c3nc(-c4cccs4)no3)c2N)c1`, the survival is inactive: 74%.

As for `COc1ccc(NS(=O)(=O)c2ccc3[nH]c(=O)ccc3c2)cc1OC`, the survival is inactive: 98%.

Regarding `CCOc1ccc(S(=O)(=O)Nc2cccc(OC)c2)c2cccnc12`, the survival is inactive: 101%.

As to `O=C1CS(=O)(=O)C2(C(=O)N(Cc3ccccc3)c3ccccc32)N1c1ccc(F)c(Cl)c1` (stereo unspecified), the survival was inactive: 83%.

In the case of `N#Cc1c(NC(=O)CN2CCCCC2)sc2c1CCC2`, the survival is inactive: 103%.

For `CC(=O)c1ccc(NC(=O)CSc2cn(CC(=O)N(C(C)C)C(C)C)c3ccccc23)cc1`, the survival was inactive: 68%.

For `CCS(=O)(=O)N1CCc2cc(C(=O)Nc3cccc(C(C)=O)c3)ccc21`, the survival was inactive: 50%.

`CCCCN(CC)C(=O)CCNS(=O)(=O)c1ccc2c(c1)c(=O)n(C)c(=O)n2C`: the survival is inactive: 105%.

Turning to `CCCOc1cccc(C2c3c(-c4ccccc4O)n[nH]c3C(=O)N2Cc2ccco2)c1` (stereo unspecified), the survival was active: 2%.

Turning to `O=C1c2ccccc2C(=O)N1CNc1ccccc1C1CC1`, the survival is inactive: 89%.

With `COc1ccc(C2=NS(=O)(=O)N(C)C(C(=O)N(C)Cc3ccccc3)=C2)cc1OC`, the survival was inactive: 79%.

For `Cc1ccccc1OCc1nc2ccccc2n1Cc1ccccc1Cl`, the survival is active: 0%.

Regarding `CC(C)(C)C1(O)CC(C(F)F)=NN1C(=O)c1ccccc1` (stereo unspecified), the survival is inactive: 87%.

As to `CCCNC(=O)C1Cc2cc(S(=O)(=O)N3CCCCCC3)ccc2N1C(C)=O` (stereo unspecified), the survival is inactive: 94%.

As to `CCCNC(=O)Cn1c(=O)c2cccn2c2cccnc21`, the survival is inactive: 79%.

With `CCCn1cnc2cc(NCc3ccccc3OCC)ccc21`, the survival was active: 35%.

Consider `COC(=O)c1ccc(C(=O)OC)c(NC(=O)c2cc3nc(-c4ccc(C)cc4)cc(C(F)(F)F)n3n2)c1`, for which the survival is inactive: 83%.

Regarding `CC(C)CCNc1ncnc2c1nnn2Cc1ccccc1`, the survival is inactive: 73%.

In the case of `COc1ccc(NS(=O)(=O)c2ccc(-c3cnc(C4CC4)o3)cc2)cc1Cl`, the survival is inactive: 124%.

For the compound `Cc1cc(C)cc(Nc2cc(C(=O)NCCCN(C)C3CCCCC3)c3ccccc3n2)c1`, the survival is inactive: 62%.

Consider `Cc1ccc(Cl)cc1N1CCN(C(=O)c2ccc(CS(=O)c3ccccc3)o2)CC1` (stereo unspecified), for which the survival was inactive: 126%.

On to `O=C(CCSCc1cnn(-c2ccccc2)c1-n1cccc1)NCc1ccccc1Cl`, for which the survival was active: 54%.

On to `COCCNC(=O)c1nn(-c2ccc(C)cc2)c(=O)n(C)c1=O`, for which the survival was inactive: 74%.

For `CCc1cc(=O)oc2c(C)c3c(cc12)CN(CCc1ccccc1OC)CO3`, the survival was inactive: 51%.

On to `O=C(O)CCCn1c(=O)oc2ccccc21`, for which the survival is inactive: 96%.

On to `COCCCNC(=O)c1sc2nc(C)c(C(=O)Nc3ccc(C)cc3C)c(-c3ccccc3Cl)c2c1N`, for which the survival is inactive: 61%.

`CCc1ccc2oc(-c3ccc(NC(=O)c4cc5ccccc5o4)cc3)nc2c1`: the survival is active: 40%.

For `CCCNC(=O)CCCN1C(=O)CCn2nc(-c3cccn3C)cc21`, the survival is inactive: 89%.

As to `COc1ccc(C(=O)NCc2ccc3c(c2)CCN3C(=O)c2ccccc2)cc1`, the survival is inactive: 84%.

For the compound `Cn1c(=O)c(=O)n(C)c2cc(C(=O)NCc3ccccc3Cl)ccc21`, the survival was inactive: 70%.

Regarding `O=C(Cn1nc(-c2ccc(Cl)cc2)c2ccccc2c1=O)Nc1cccc(C(F)(F)F)c1`, the survival was active: 34%.

Turning to `COC(=O)c1scc(-c2ccc(C)cc2)c1S(=O)(=O)N1CCN(c2ccc(C)cc2C)CC1`, the survival was inactive: 66%.

Take `COc1cccc(Nc2nc3ccccc3c3nncn23)c1`: the survival was inactive: 89%.

`Cn1c(SCc2cc(=O)c3cc(Cl)ccc3[nH]2)nnc1-c1ccccc1`: the survival was inactive: 113%.

For `O=C(Nc1sc2c(c1C(=O)c1ccccc1)CCCC2)c1ccco1`, the survival was inactive: 73%.

For the compound `COc1ccc(C(CNC(=O)c2oc3cc(C)c(Cl)cc3c2C)N2CCCCC2)cc1` (stereo unspecified), the survival is inactive: 87%.

Turning to `Cc1ccc(C2C3=C(CCCC3=O)N(C)C3=C2C(=O)CCC3)cc1`, the survival was inactive: 86%.

With `COCCNC(=O)CCc1c(C)n(C)c2cc(-c3cc(OC)c(OC)c(OC)c3)nn2c1=O`, the survival was active: 25%.

On to `OC1COCc2nc3ccccc3n2C1` (stereo unspecified), for which the survival is active: 57%.

For the compound `CC1CCN(S(=O)(=O)c2ccc3nc(NCc4ccccc4)ccc3c2)CC1`, the survival is inactive: 119%.

As for `Cn1ccc2c(OCC(=O)Nc3ccc(OC(F)(F)F)cc3)cccc2c1=O`, the survival was inactive: 95%.

`Nc1cc(=O)[nH]c2n[nH]c(=S)n12`: the survival is inactive: 79%.

For `CC(=O)c1ccc(NS(=O)(=O)c2ccc(Br)s2)cc1`, the survival was active: 47%.

Regarding `CCCSc1ncc(Cl)c(C(=O)N(Cc2ccccc2)c2ccc(OC)cc2)n1`, the survival was active: 45%.

In the case of `CC1=Nc2ccc(Cl)cc2C(c2ccccc2)N1CC(=O)NN` (stereo unspecified), the survival was inactive: 117%.

As to `COc1cccc(NC(=O)N(CCC(C)C)C2CCN(C(C)C)CC2)c1`, the survival is inactive: 79%.

Take `Cc1ccc(CNC(=O)C2CCN(S(=O)(=O)c3ccc4nc5c(c(C(=O)O)c4c3)CC(C)CC5)CC2)cc1` (stereo unspecified): the survival is inactive: 88%.

Regarding `CCc1cnc2c(c1SCC(=O)NCc1ccc(C)cc1)c(=O)n(C)c(=O)n2C`, the survival is inactive: 70%.

Turning to `CCN(C(=O)c1cccc(Cl)c1)C1CCCCC1`, the survival is inactive: 104%.

As for `CCOCCCNC(=O)c1cn(CC)c2ccc(S(=O)(=O)N3CCOCC3)cc2c1=O`, the survival was inactive: 81%.

`CCOC(=O)CSc1nc2ccc(NC(=O)COc3ccc(F)cc3)cc2s1`: the survival is inactive: 106%.

For the compound `CCOC(=O)c1ccc(N2CCN(c3ccccc3OC)CC2)c(NC(=O)Nc2ccc(CC)cc2)c1`, the survival was inactive: 73%.

On to `Cc1cc(C(=O)N2CCN(c3cccc(Cl)c3)CC2)c2c(C)nn(-c3ccccc3Cl)c2n1`, for which the survival was inactive: 90%.

With `COc1ccc(CNC(=O)C2=CC(c3ccc(OC)c(OC)c3)=NS(=O)(=O)N2C)cc1`, the survival was inactive: 67%.

For `O=C(CN1C(=O)CSC1=O)NC1CCCCC1`, the survival is inactive: 96%.

For the compound `CCn1cc(C(=O)N2CCN(c3cc(Cl)ccc3C)CC2)c(=O)c2cc(S(=O)(=O)N3CCCC3)ccc21`, the survival was inactive: 93%.

As for `COc1ccc(NC(=O)C(C)Sc2nc(C)cc(=O)[nH]2)cc1` (stereo unspecified), the survival is inactive: 101%.

For the compound `O=C(COc1ccccc1)N=Nc1c(O)[nH]c2ccccc12`, the survival was inactive: 83%.

Regarding `COc1cc(Cl)c(C)cc1NC(=O)c1cc2c(=O)oc3ccccc3c2s1`, the survival was inactive: 124%.

Take `CC(C)(C)C1CCc2c(sc(NC(=O)c3ccco3)c2C(=O)Nc2ccccc2Cl)C1` (stereo unspecified): the survival is inactive: 135%.

With `COc1cc2nc(SCC(=O)Nc3ccccc3C)n3nc(CCn4c(C)nc5ccccc54)nc3c2cc1OC`, the survival is inactive: 77%.

As to `Cc1nnsc1C(=O)Oc1ccc(Cl)cc1`, the survival is inactive: 86%.

On to `O=C(O)CC(NC(=O)c1ccco1)c1ccc(F)cc1` (stereo unspecified), for which the survival was inactive: 79%.

For `O=C(CSc1nc2c([nH]c3ccccc32)c(=O)n1-c1cccc(Cl)c1)c1ccccc1`, the survival was active: 47%.

In the case of `O=C(NCc1ccccc1)C(=O)NCC(c1cccs1)S(=O)(=O)c1cccs1` (stereo unspecified), the survival is inactive: 91%.

Regarding `COc1ccc(N2CCN(CCCNC(=O)c3cnn(-c4ccc(C)cc4)c3-n3cccc3)CC2)cc1`, the survival was inactive: 92%.

Turning to `CCOc1ccc(NC(=O)N(Cc2cn(CC)c3ccccc23)C2CCCCCC2)cc1`, the survival was active: -12%.

Consider `COc1ccc(S(=O)(=O)c2c(Nc3ccc(C)cc3C)sc(C(=O)c3ccc(F)cc3)c2N)cc1`, for which the survival is inactive: 107%.

With `Cc1cc(C)c(NC(=O)C2CCN(S(=O)(=O)c3c(C)noc3/C=C/c3ccccc3F)CC2)c(C)c1`, the survival is inactive: 78%.

Take `CN(C)c1ccc(C(CNC(=O)c2ccccc2Cl)N2CCCC2)cc1` (stereo unspecified): the survival is inactive: 81%.

As to `COc1ccccc1NC(=O)N1CCN(Cc2nc3ccc(C)cc3o2)CC1`, the survival was inactive: 84%.

In the case of `Cc1cc(C)c(NC(=O)Cn2c(=O)n(CC3CCCO3)c(=O)c3ccccc32)c(C)c1` (stereo unspecified), the survival was inactive: 87%.

`COc1cccc(N2CCN(C3=NS(=O)(=O)C(c4ccc(C)cc4)=C3C)CC2)c1`: the survival is inactive: 81%.

As for `Cc1ccc(Cn2c(=O)n(CCCCC(=O)NCc3ccc4c(c3)OCO4)c(=O)c3ccccc32)cc1`, the survival is inactive: 102%.

As to `CCc1ccccc1S(=O)(=O)Cc1ccc(C(=O)NCCc2ccc(C)cc2)o1`, the survival was inactive: 87%.

For the compound `Cc1cc(C)cc(C(=O)NCCc2csc(-c3ccc(C(F)(F)F)cc3)n2)c1`, the survival is inactive: 94%.

As to `CCc1ccccc1NC(=O)CSc1ncc2c(n1)-c1cc(Cl)ccc1N(Cc1ccccc1)S2(=O)=O`, the survival was inactive: 81%.

As to `CCOC(=O)c1nnn(-c2nn3nnnc3c3ccccc23)c1C`, the survival is inactive: 105%.

On to `Cc1c(C(=O)OCC2CCCCC2)[nH]c2c1C(=O)CC(c1ccccc1Cl)C2` (stereo unspecified), for which the survival is inactive: 97%.

Turning to `CCOc1ccc2nc3sc(C(=O)Nc4nonc4C)c(N)c3cc2c1`, the survival is inactive: 69%.

In the case of `COc1ccc(CCNC(=O)CCc2c(C)nc3c4cccnc4nn3c2C)cc1OC`, the survival is inactive: 87%.

For the compound `CCCCn1cc(S(=O)(=O)c2ccc(OC)cc2)c(=O)c2cc(F)c(N3CCOCC3)cc21`, the survival is inactive: 92%.

For the compound `CCc1ccc(-n2nc(C)c3c(C)cc(=O)n(CC(=O)Nc4cc(C)ccc4C)c32)cc1`, the survival was inactive: 74%.

On to `COc1ccc(NC(=O)c2ncn(-c3ccccc3)n2)cc1Cl`, for which the survival is inactive: 83%.

With `CCOc1ccc(NC(=O)CC2C(=O)N(c3ccccc3)C(=O)N2CCc2sccc2C)cc1` (stereo unspecified), the survival is inactive: 73%.

With `O=C(Cn1cc(SCc2cccc(Cl)c2)c2ccccc21)N1CCCCC1`, the survival was inactive: 73%.

On to `c1cncc(-c2nnc(SCC3CCCCC3)o2)c1`, for which the survival is inactive: 62%.

For the compound `O=C1C2C3c4ccccc4C(c4ccccc43)C2C(=O)N1Cc1ccco1` (stereo unspecified), the survival was inactive: 104%.

Take `NC(=O)C1CCN(C(=O)c2cc(-c3ccccc3)on2)CC1`: the survival is inactive: 98%.

With `Fc1ccc(-c2cc(-c3nc(-c4ccc(Cl)cc4)no3)[nH]n2)cc1`, the survival is inactive: 87%.

`COc1ccc(S(=O)(=O)c2c(C(=O)c3ccc(C)c(C)c3)cnc3ccc(C)cc23)cc1`: the survival was inactive: 81%.
